Among the data in patent US20240076343A1 are Fold change from hIL-2 (TF1 + IL-2Rβ) and Fold change from hIL-2 (NK-92) values, retold here.

Experiment [1] has as its target intermediate affinity hIL-2 receptor complex (IL-2Rβγ) on TF1+IL-2Rβ cells (human) (UniProt P14784). In words: cell-based or functional assay.
Experiment [2] concerns the target high-affinity hIL-2 receptor (IL-2Rαβγ) on NK-92 cells (human) (UniProt P01589). In words: cell-based or functional assay.
Chain of UniProt P01589 (P01589 22-272, chain 1 of 3): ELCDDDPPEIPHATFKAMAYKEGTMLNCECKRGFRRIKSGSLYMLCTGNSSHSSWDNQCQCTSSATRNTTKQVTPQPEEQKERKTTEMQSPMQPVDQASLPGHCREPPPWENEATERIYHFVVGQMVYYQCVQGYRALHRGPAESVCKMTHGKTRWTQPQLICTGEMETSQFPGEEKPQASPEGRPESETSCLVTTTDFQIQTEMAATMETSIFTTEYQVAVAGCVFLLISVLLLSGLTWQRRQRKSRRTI
Chain of UniProt P01589 (chain, as listed by the source, chain 2 of 3): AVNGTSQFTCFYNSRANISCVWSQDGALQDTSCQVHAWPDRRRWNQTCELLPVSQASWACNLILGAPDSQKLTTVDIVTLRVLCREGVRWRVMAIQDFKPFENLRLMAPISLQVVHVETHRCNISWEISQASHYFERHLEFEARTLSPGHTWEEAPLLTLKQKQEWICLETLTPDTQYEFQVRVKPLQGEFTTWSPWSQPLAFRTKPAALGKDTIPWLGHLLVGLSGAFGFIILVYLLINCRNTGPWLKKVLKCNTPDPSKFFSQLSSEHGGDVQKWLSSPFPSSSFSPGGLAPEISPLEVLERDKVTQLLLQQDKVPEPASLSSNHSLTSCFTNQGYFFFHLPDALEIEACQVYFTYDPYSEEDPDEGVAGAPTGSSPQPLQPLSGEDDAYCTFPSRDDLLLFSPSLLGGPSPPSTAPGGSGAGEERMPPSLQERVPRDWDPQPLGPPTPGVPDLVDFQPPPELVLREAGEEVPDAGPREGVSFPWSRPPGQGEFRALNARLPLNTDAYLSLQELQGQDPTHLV
Chain of UniProt P01589 (chain, as listed by the source, chain 3 of 3): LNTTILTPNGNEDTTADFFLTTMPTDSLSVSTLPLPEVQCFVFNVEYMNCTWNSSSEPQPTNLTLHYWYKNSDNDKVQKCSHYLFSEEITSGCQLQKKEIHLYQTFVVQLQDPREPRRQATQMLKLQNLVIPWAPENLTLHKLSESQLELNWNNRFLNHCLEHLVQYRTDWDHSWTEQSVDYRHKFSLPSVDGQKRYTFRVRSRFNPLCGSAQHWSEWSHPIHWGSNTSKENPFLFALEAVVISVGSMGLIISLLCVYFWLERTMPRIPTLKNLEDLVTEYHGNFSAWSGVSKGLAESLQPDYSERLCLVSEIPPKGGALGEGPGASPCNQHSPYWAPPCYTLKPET

Chain of UniProt P14784 (P14784 27-551, chain 1 of 2): as the sequence (chain, as listed by the source, chain 2 of 3) above
Chain of UniProt P14784 (chain, as listed by the source, chain 2 of 2): as the sequence (chain, as listed by the source, chain 3 of 3) above

B1: 1H3-hIgG1-L6-hIL-2 (Y45R/I92D) (protein)
heavy: EVQLVESGGGLVQPGRSLKLSCAVSGFTFSDYAMAWVRQAPKKGLEWVATISYDGSRTYYRDSVKGRFTISRDNAKITLYLQMDSLRSEDTATYYCARHGSGYFDYWGQGVMVTVSS[not shown - about 450 residues with a human IgG1 Fc and changes]
light: DTVLTQSPALAVSPGERVTISCRASESVRTGVHWYQQKPGQQPKLLIYGASNLESGVPARFSGSGSGTDFTLTIDPVEADDTATYFCQQSWNDPFTFGSGTKLEIKRTVAAPSVFIFPPSDEQLKSGTASVVCLLNNFYPREAKVQWKVDNALQSGNSQESVTEQDSKDSTYSLSSTLTLSKADYEKHKVYACEVTHQGLSSPVTKSFNRGEC
B1: in experiment [1], the Fold change from hIL-2 (TF1 + IL-2Rβ) is 1 fold. This molecule also yielded a Fold change from hIL-2 (NK-92) in experiment [2] of 13 fold.

B2: 1H3-hIgG1-L6-hIL-2 (Y45K/I92D) (protein)
heavy: EVQLVESGGGLVQPGRSLKLSCAVSGFTFSDYAMAWVRQAPKKGLEWVATISYDGSRTYYRDSVKGRFTISRDNAKITLYLQMDSLRSEDTATYYCARHGSGYFDYWGQGVMVTVSS[not shown - about 450 residues with a human IgG1 Fc and changes]
light: B1 light
On to B2, for which, in experiment [1], the Fold change from hIL-2 (TF1 + IL-2Rβ) worked out at 1 fold. In experiment [2], this molecule returned a Fold change from hIL-2 (NK-92) of 13 fold.

B3: 1H3-hIgG1-L6-hIL-2 (F42H/Y45R/D20A) (protein)
heavy: EVQLVESGGGLVQPGRSLKLSCAVSGFTFSDYAMAWVRQAPKKGLEWVATISYDGSRTYYRDSVKGRFTISRDNAKITLYLQMDSLRSEDTATYYCARHGSGYFDYWGQGVMVTVSS[not shown - human IgG1 constant region]SGGGGSAPTSSSTKKTQLQLEHLLLALQMILNGINNYKNPKLTRMLTHKFRMPKKATELKHLQCLEEELKPLEEVLNLAQSKNFHLRPRDLISNINVIVLELKGSETTFMCEYADETATIVEFLNRWITFCQSIISTLT
light: B1 light
With B3, the Fold change from hIL-2 (TF1 + IL-2Rβ) in experiment [1] worked out at 2 fold. Besides, the Fold change from hIL-2 (NK-92) in experiment [2] is 12 fold.

B4: 1H3-hIgG1-L6-hIL-2 (E62A/I92D) (protein)
heavy: EVQLVESGGGLVQPGRSLKLSCAVSGFTFSDYAMAWVRQAPKKGLEWVATISYDGSRTYYRDSVKGRFTISRDNAKITLYLQMDSLRSEDTATYYCARHGSGYFDYWGQGVMVTVSS[not shown - about 450 residues with a human IgG1 Fc and changes]
light: B1 light
Consider B4, for which the Fold change from hIL-2 (TF1 + IL-2Rβ) in experiment [1] amounted to 3 fold. The same molecule showed a Fold change from hIL-2 (NK-92) in experiment [2] of 13 fold.

B5: 1H3-hIgG1-L6-hIL-2 (E62Y/I92D) (protein)
heavy: EVQLVESGGGLVQPGRSLKLSCAVSGFTFSDYAMAWVRQAPKKGLEWVATISYDGSRTYYRDSVKGRFTISRDNAKITLYLQMDSLRSEDTATYYCARHGSGYFDYWGQGVMVTVSS[not shown - about 450 residues with a human IgG1 Fc and changes]
light: B1 light
For the molecule B5, the Fold change from hIL-2 (TF1 + IL-2Rβ) in experiment [1] was found to be 5 fold. This molecule also gave a Fold change from hIL-2 (NK-92) in experiment [2] of 14 fold.

B6: 1H3-hIgG1-L6-hIL-2 (L72R/I92D) (protein)
heavy: EVQLVESGGGLVQPGRSLKLSCAVSGFTFSDYAMAWVRQAPKKGLEWVATISYDGSRTYYRDSVKGRFTISRDNAKITLYLQMDSLRSEDTATYYCARHGSGYFDYWGQGVMVTVSS[not shown - about 450 residues with a human IgG1 Fc and changes]
light: B1 light
Turning to B6, in experiment [1], the Fold change from hIL-2 (TF1 + IL-2Rβ) came to 5 fold. Further, in experiment [2], the Fold change from hIL-2 (NK-92) worked out at 14 fold.

B7: 1H3-hIgG1-L6-hIL-2 (F42A/Y45R/D20A) (protein)
heavy: EVQLVESGGGLVQPGRSLKLSCAVSGFTFSDYAMAWVRQAPKKGLEWVATISYDGSRTYYRDSVKGRFTISRDNAKITLYLQMDSLRSEDTATYYCARHGSGYFDYWGQGVMVTVSS[not shown - human IgG1 constant region]SGGGGSAPTSSSTKKTQLQLEHLLLALQMILNGINNYKNPKLTRMLTAKFRMPKKATELKHLQCLEEELKPLEEVLNLAQSKNFHLRPRDLISNINVIVLELKGSETTFMCEYADETATIVEFLNRWITFCQSIISTLT
light: B1 light
B7: in experiment [1], the Fold change from hIL-2 (TF1 + IL-2Rβ) is 2 fold. The molecule further displayed a Fold change from hIL-2 (NK-92) in experiment [2] of 11 fold.

B8: 1H3-hIgG1-L6-hIL-2 (R38E/N88R) (protein)
heavy: EVQLVESGGGLVQPGRSLKLSCAVSGFTFSDYAMAWVRQAPKKGLEWVATISYDGSRTYYRDSVKGRFTISRDNAKITLYLQMDSLRSEDTATYYCARHGSGYFDYWGQGVMVTVSS[not shown - about 450 residues with a human IgG1 Fc and changes]
light: B1 light
In the case of B8, the Fold change from hIL-2 (TF1 + IL-2Rβ) in experiment [1] turned out to be 1 fold. Also, the Fold change from hIL-2 (NK-92) in experiment [2] was 16 fold.

B9: 1H3-hIgG1-L6-hIL-2 (L72D/I92D) (protein)
heavy: EVQLVESGGGLVQPGRSLKLSCAVSGFTFSDYAMAWVRQAPKKGLEWVATISYDGSRTYYRDSVKGRFTISRDNAKITLYLQMDSLRSEDTATYYCARHGSGYFDYWGQGVMVTVSS[not shown - about 450 residues with a human IgG1 Fc and changes]
light: B1 light
Turning to B9, the Fold change from hIL-2 (TF1 + IL-2Rβ) in experiment [1] turned out to be 5 fold. In experiment [2], this molecule had a Fold change from hIL-2 (NK-92) of 14 fold.

B10: 1H3-hIgG1-L6-hIL-2 (L72H/I92D) (protein)
heavy: EVQLVESGGGLVQPGRSLKLSCAVSGFTFSDYAMAWVRQAPKKGLEWVATISYDGSRTYYRDSVKGRFTISRDNAKITLYLQMDSLRSEDTATYYCARHGSGYFDYWGQGVMVTVSS[not shown - about 450 residues with a human IgG1 Fc and changes]
light: B1 light
With B10, the Fold change from hIL-2 (TF1 + IL-2Rβ) in experiment [1] amounted to 5 fold. In experiment [2], this molecule had a Fold change from hIL-2 (NK-92) of 14 fold.

B11: 1H3-hIgG1-L6-hIL-2 (R38A/I92D) (protein)
heavy: EVQLVESGGGLVQPGRSLKLSCAVSGFTFSDYAMAWVRQAPKKGLEWVATISYDGSRTYYRDSVKGRFTISRDNAKITLYLQMDSLRSEDTATYYCARHGSGYFDYWGQGVMVTVSS[not shown - about 450 residues with a human IgG1 Fc and changes]
light: B1 light
Turning to B11, the Fold change from hIL-2 (TF1 + IL-2Rβ) in experiment [1] is 4 fold. Further, the Fold change from hIL-2 (NK-92) in experiment [2] is 13 fold.
